The text below walks through data of the supplement of paper PMC4723716.

± gives the uncertainty stated by the source. In all, about 9,900 compounds were measured (“viability index relative to DMSO control”: median about 1, lowest 2% from about 0.85 on). The list shows a part of the results.

The assay has as its system Plasmodium falciparum NF54 stage V gametocytes. Kind of assay: viability index relative to DMSO control (fraction); higher = less gametocyte killing. The conditions noted are these: 2.5 µM, library set: Broad Institute DOS, incubation time: 72 h. In outline: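 Gametocytes (P. falciparum NF54, stage V) were treated with compound at 2.5 µM for 72 hr at 37°C in low oxygen, in serum-free medium at 0.75% gametocytemia and 1.25% hematocrit. Counts of 20–70 µm2 red particles, taken from one field per well after MitoTracker Red CMXRos with saponin, were divided by the plate mean of solvent-only wells. This ratio is the viability index.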
Turning to `CCC(=O)N1[C@@H]2c3ccc(-c4ccccc4OC)c(=O)n3C[C@@H]2[C@@H](CO)[C@@H]1C(=O)NCCCN(C)C`, the viability index turned out to be 1.08 ± 0.07.
With `Cc1noc(C)c1S(=O)(=O)N(C)C[C@H]1OCc2cn(nn2)CCCC(=O)N([C@H](C)CO)C[C@H]1C`, the viability index was 1.1 ± 0.039.
On to `O=C(c1cccnc1)N1CC2(C1)[C@H](c1ccccc1)[C@H](CO)N2Cc1ccc(Cl)cc1`, for which the viability index was 1.101 ± 0.0023.
In the case of `C[C@H](CO)N1C[C@H](C)[C@H](CN(C)C(=O)CCCN(C)C)OCCCC[C@H](C)Oc2ccc(NS(=O)(=O)c3ccc(Cl)cc3)cc2C1=O`, the viability index amounted to 1.09 ± 0.12.
Compound `C[C@H](CO)N1C[C@H](C)[C@@H](CN(C)Cc2cccnc2)OCc2ccccc2-c2ccccc2C1=O` showed a viability index of 1.01 ± 0.051.
Turning to `C[C@@H]1CCn2cc(nn2)COC[C@H](Cc2ccccc2)NC1=O`, the viability index is 0.981 ± 0.038.
As for `C[C@H](CO)N1C[C@H](C)[C@H](CN(C)Cc2cccnc2)OCc2ccccc2-c2ccccc2C1=O`, the viability index worked out at 0.995 ± 0.086.
As to `O=C(C1CCOCC1)N1CC(=O)N2[C@H](C1)[C@H](c1ccc(C#CC3CCCCC3)cc1)[C@@H]2CO`, the viability index stood at 1.03 ± 0.018.
Consider `COc1ccc(CN(C)C[C@H]2OCCCC[C@H](C)Oc3ccc(NC(=O)C4CCCCC4)cc3C(=O)N([C@H](C)CO)C[C@@H]2C)cc1`, for which the viability index amounted to 1.02 ± 0.012.
Compound `CO[C@H]1CN(C)C(=O)c2ccc(NC(C)=O)cc2OC[C@@H](C)N(C(=O)c2cnccn2)C[C@H]1C` showed a viability index of 1 ± 0.018.
`COCC(=O)N1[C@H](CO)[C@H](c2ccccc2-c2cccc(C)c2)[C@@H]1C#N` gave a viability index of 1.06 ± 0.063.
Consider `C[C@@H]1CN([C@H](C)CO)C(=O)CCCn2cc(nn2)CO[C@H]1CN(C)C(=O)CCC(F)(F)F`, for which the viability index was determined as 0.988 ± 0.084.
The compound `COCC#Cc1ccc([C@@H]2[C@@H](CO)N3C(=O)CN(C(=O)C4CCCCC4)C[C@H]23)cc1` registered a viability index of 1.02 ± 0.034.
In turn, `O=C1CNC[C@@H]2[C@@H](c3ccc(-c4ccccc4F)cc3)[C@H](CO)N12` showed a viability index of 1.01 ± 0.058.
Compound `O=C(CC1CC1)N1CC2(C1)[C@H](c1ccccc1)[C@@H](CO)N2Cc1ccccn1` had a viability index of 1.07 ± 0.077.
Compound `C[C@@H]1CN([C@H](C)CO)C(=O)c2ccccc2-c2ccccc2CO[C@@H]1CN(C)C(=O)c1cc(Cl)cc(Cl)c1` came in with a viability index of 0.8517 ± 0.003.
In turn, `O=C(N[C@@H]1C=C[C@@H](CC(=O)N2CCC(Cc3ccccc3)CC2)O[C@H]1CO)c1cnccn1` registered a viability index of 0.984 ± 0.033.
For `O=C(C[C@H]1C[C@@H]2c3cc(NC(=O)C4CCC4)ccc3O[C@@H]2[C@H](CO)O1)NC1CCCC1` the value was 1.1 ± 0.11.
Regarding `C[C@@H]1CCCCO[C@@H](CN(C)C(=O)NC2CCCCC2)[C@H](C)CN([C@@H](C)CO)C(=O)c2cc(N(C)C)ccc2O1`, the viability index turned out to be 1.12 ± 0.13.
As to `CCS(=O)(=O)N1CCCCN2[C@H](C1)[C@@H](c1ccc(-c3ccc(C(=O)N(C)C)cc3)cc1)[C@@H]2CO`, the viability index is 0.982 ± 0.1.
`COCC(=O)N1[C@H](C#N)[C@H](c2ccc(C#CCC3CCCC3)cc2)[C@@H]1CO` displayed a viability index of 1.06 ± 0.089.
Compound `C/C=C/c1ccc2n(c1=O)C[C@H]1N[C@@H]2[C@@H](C(=O)NC2CCCC2)[C@@H]1CO.C/C=C\c1ccc2n(c1=O)C[C@H]1N[C@@H]2[C@@H](C(=O)NC2CCCC2)[C@@H]1CO` displayed a viability index of 1.01 ± 0.11.
For `O=C(C1CCCCC1)N1CC(=O)N2[C@H](CO)[C@@H](c3ccc(-c4ccccc4F)cc3)[C@@H]2C1` the value was 1.064 ± 0.0081; for `C[C@@H]1CN([C@H](C)CO)C(=O)CCCn2nncc2CO[C@H]1CN(C)C(=O)Nc1ccc2c(c1)OCCO2`, 0.9785 ± 0.0043.
In turn, `COc1ccccc1NC(=O)N1C[C@H]2[C@@H](c3ccccc31)[C@H](CO)N2CC1CCOCC1` returned a viability index of 1.02 ± 0.062.
`CC(=O)NC[C@H]1[C@H](c2ccc(C3=CCCC3)cc2)[C@@H](CO)N1Cc1cccnc1` had a viability index of 1.01 ± 0.089.
On to `Cc1nn(C)cc1NC(=O)C[C@H]1CC[C@H]2[C@H](COc3ccc(NC(=O)C4CCOCC4)cc3C(=O)N2C)O1`, for which the viability index amounted to 0.978 ± 0.11.
Consider `COc1ccc2c3c([nH]c2c1)[C@H](CO)N(Cc1ccc(Cl)cc1)C[C@]31CCN(Cc2nccs2)CC1`, for which the viability index was determined as 0.884 ± 0.047.
For `C[C@@H](O)C#Cc1ccc([C@@H]2[C@H]3CN(CC4CC4)CCCCN3[C@H]2CO)cc1` the value was 1.04 ± 0.053.
`COc1ccc2c3c([C@@H](CO)N(C[C@]33CN(C3)C(C)=O)C(=O)c3ccncc3)n(C)c2c1` came in with a viability index of 1.03 ± 0.11.
Turning to `COc1ccc2c3c([nH]c2c1)[C@H](CO)N(C[C@]31CN(Cc2ccc(F)cc2)C1)C(=O)NC(C)C`, the viability index was found to be 0.962 ± 0.069.
For `CC(C)C(=O)Nc1ccc2c(c1)C(=O)N(C)[C@@H]1CC[C@@H](CC(=O)NCCc3ccccc3)O[C@@H]1CO2` the value was 1.12 ± 0.18.
`C[C@@H]1CN([C@@H](C)CO)C(=O)c2c(c3ccccc3n2C)-c2ccccc2CO[C@H]1CN(C)C(=O)[C@H]1CCCN1C` returned a viability index of 1.08 ± 0.011.
For `CCCNC(=O)N1C[C@]2(CCN(Cc3cccc(OC)c3)CC2)c2c([C@H]1CO)n(C)c1cc(OC)ccc21` the value was 0.9943 ± 0.0058; for `Cc1noc(C)c1S(=O)(=O)N(C)C[C@H]1OCc2ccccc2-c2c(n(C)c3ccccc23)C(=O)N([C@H](C)CO)C[C@H]1C`, 0.948 ± 0.025.
`C[C@@H]1CN([C@@H](C)CO)C(=O)Cc2cc(NS(=O)(=O)c3ccc(F)cc3)ccc2O[C@@H]1CN(C)Cc1ccncc1` came in with a viability index of 0.975 ± 0.051.
`CO[C@@H]1CC[C@@H]2CCOc3c(C#N)cccc3C(=O)N(C)C[C@H](c3ccccc3)CC(=O)N(C)C[C@H]1O2` returned a viability index of 0.992 ± 0.075.
For `O=C(C[C@@H]1C=C[C@H](NC(=O)CCN2CCCCC2)[C@@H](CO)O1)Nc1nccs1` the value was 0.982 ± 0.15; for `C[C@@H]1CCCCO[C@@H](CN(C)Cc2ccc(Cl)c(Cl)c2)[C@H](C)CN([C@@H](C)CO)C(=O)c2cc(NS(=O)(=O)c3cccs3)ccc2O1`, 1.02 ± 0.073; for `C[C@@H]1CN([C@@H](C)CO)C(=O)Cc2cc(NC(=O)C3CC3)ccc2O[C@@H]1CN(C)S(=O)(=O)c1cn(C)cn1`, 0.967 ± 0.047.
The result for `CN1C(=O)c2cc(NS(=O)(=O)c3ccccc3F)ccc2OC[C@H]2O[C@@H](CC(=O)NC3Cc4ccccc4C3)CC[C@@H]21` reads 0.979 ± 0.096; that for `O=C(c1cccnc1)N1CC2(C1)[C@@H](c1ccccc1)[C@@H](CO)N2Cc1ccc(Cl)cc1`, 1.11 ± 0.029.
In turn, `CC(=O)N1[C@@H]2c3ccc(-c4cccnc4)c(=O)n3C[C@H]1[C@H](CO)[C@H]2C(=O)NC1Cc2ccccc2C1` had a viability index of 1.07 ± 0.075.
Consider `C[C@@H]1CN([C@@H](C)CO)C(=O)c2cccc(NS(C)(=O)=O)c2O[C@@H]1CN(C)Cc1ccc(-c2ccccc2)cc1`, for which the viability index came out at 1.04 ± 0.011.
`COc1cccc(NC(=O)C[C@@H]2CC[C@H]3[C@@H](COc4ccc(NS(=O)(=O)c5cccc(F)c5)cc4C(=O)N3C)O2)c1` showed a viability index of 1.08 ± 0.049.
In turn, `CO[C@H]1CN(C)C(=O)c2ccc(NS(=O)(=O)c3c(C)noc3C)cc2OC[C@@H](C)NC[C@@H]1C` displayed a viability index of 1.06 ± 0.02.
For `O=C(C[C@@H]1CC[C@H]2[C@@H](COC[C@H](O)CN2C(=O)c2ccc(F)cc2)O1)N1CCCCC1` the value was 1.08 ± 0.055; for `O=C(C[C@H]1CC[C@@H]2NC[C@H](O)COC[C@H]2O1)NCCN1CCCCC1`, 0.97 ± 0.086; for `O=C(C[C@@H]1CC[C@H]2[C@@H](COC[C@H](O)CN2Cc2ccc3c(c2)OCO3)O1)N1CCCCC1`, 0.994 ± 0.096.
For `CCCN1C[C@H](C)[C@H](OC)CN(C)C(=O)c2ccc(NS(=O)(=O)c3cn(C)cn3)cc2OC[C@H]1C` the value was 0.9716 ± 0.006; for `CO[C@@H]1CC[C@H]2CCOc3ccc(C#N)cc3C(=O)N(C)[C@@H](C)C(=O)N(C)C[C@H]1O2`, 1.08 ± 0.071; for `CO[C@@H]1CN(C)C(=O)c2cc(NC(=O)Nc3cccc(Cl)c3)ccc2OC[C@H](C)N(C(=O)Nc2c(C)noc2C)C[C@@H]1C`, 1.08 ± 0.063.
Consider `CCCN1C[C@@H](C)[C@@H](OC)CN(C)C(=O)c2cc(NC(=O)Nc3cccc(F)c3)ccc2OC[C@H]1C`, for which the viability index amounted to 1.04 ± 0.039.
For `CO[C@H]1CN(C)C(=O)c2cc(NC(=O)c3cccc(F)c3)ccc2OC[C@H](C)N(C)C[C@@H]1C` the value was 1.12 ± 0.038.
The result for `CN1CCCCN2[C@@H](CO)[C@H](c3ccc(-c4ccc(F)cc4)cc3)[C@@H]2C1` reads 0.9696 ± 0.0088; that for `C/C=C/c1ccc2n(c1=O)C[C@H]1[C@H](CO)[C@@H](C(=O)NCC3CC3)[C@@H]2N1C(=O)Nc1cc(F)ccc1F.C/C=C\c1ccc2n(c1=O)C[C@H]1[C@H](CO)[C@@H](C(=O)NCC3CC3)[C@@H]2N1C(=O)Nc1cc(F)ccc1F`, 1.074 ± 0.0083; that for `CO[C@H]1CN(C)C(=O)c2ccc(NC(=O)c3ccccc3F)cc2OC[C@H](C)N(C)C[C@H]1C`, 1.07 ± 0.08.
`COc1ccc2c3c([nH]c2c1)[C@@H](CO)N(C[C@]31CCN(CC1)S(=O)(=O)c1cccs1)C(=O)c1ccc(F)cc1` came in with a viability index of 1.054 ± 0.0085.
Compound `CO[C@H]1CN(C)C(=O)c2ccc(NC(=O)Nc3c(C)noc3C)cc2OC[C@H](C)N(CCC(F)(F)F)C[C@@H]1C` came in with a viability index of 0.972 ± 0.084.
As to `N#C[C@@H]1[C@H](c2ccccc2C2=CCCC2)[C@H](CO)N1C(=O)Cc1ccncc1`, the viability index was 1.15 ± 0.038.
In turn, `CCNC[C@@H]1[C@@H](c2ccc(-c3ccc(F)cc3)cc2)[C@@H](CO)N1C(=O)C1CC1` showed a viability index of 0.921 ± 0.038.
For `COc1ccc(NC(=O)N2CCCCN3[C@H](CO)[C@@H](c4ccc(-c5ccccc5F)cc4)[C@H]3C2)cc1` the value was 0.9749 ± 0.0037; for `C/C=C/c1ccc([C@H]2[C@@H](CO)N(C(=O)c3ccccc3)C23CN(C(C)=O)C3)cc1`, 1.08 ± 0.074; for `C/C=C/c1ccc([C@H]2[C@H](CO)N(C(=O)CN(C)C)C23CN(C(=O)C2CCOCC2)C3)cc1`, 1.05 ± 0.059.
`N#C[C@H]1[C@@H](c2ccc(C#Cc3ccccc3F)cc2)[C@H](CO)N1C(=O)c1cccnc1` yielded a viability index of 1.1 ± 0.082.
Consider `C[C@H](CO)N1C[C@H](C)[C@H](CN(C)S(=O)(=O)c2ccccc2F)Oc2ncc(/C=C/c3ccccc3)cc2C1=O`, for which the viability index stood at 0.929 ± 0.11.
`CN(C)C(=O)C[C@@H]1CC[C@H]2[C@@H](COC[C@@H](O)CN2C(=O)C2CCOCC2)O1` showed a viability index of 1.1 ± 0.016.
As to `CCCNC(=O)N1[C@H](C#N)[C@@H](c2ccc(-c3ccccc3F)cc2)[C@H]1CO`, the viability index is 0.974 ± 0.074.
Regarding `CN(C)C(=O)c1cccc(-c2ccc([C@H]3[C@@H](CO)N4C(=O)CN(C(=O)C5CCC5)C[C@@H]34)cc2)c1`, the viability index came to 1.123 ± 0.0072.
